“And” between values parts separate entries of the source, which are not always exact repeats. Equal entries are not always repeated.
How the values were obtained:
VEGF-A165 [1] = target: T1, VEGF-A165 (human, UniProt P15692-4 27-191); test: SPR, Biacore T200
T1 construct: also called recombinant human VEGF-A165 protein
T1 sequence (looked up): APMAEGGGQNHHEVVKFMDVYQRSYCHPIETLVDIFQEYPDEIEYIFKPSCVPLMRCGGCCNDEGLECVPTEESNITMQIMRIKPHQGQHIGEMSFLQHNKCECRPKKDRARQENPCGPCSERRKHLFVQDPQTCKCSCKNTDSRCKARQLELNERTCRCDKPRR

VEGF-A121 = target: T2, VEGF-A121 (UniProt P15692-9 27-147); test: SPR, Biacore T200
T2 sequence (looked up): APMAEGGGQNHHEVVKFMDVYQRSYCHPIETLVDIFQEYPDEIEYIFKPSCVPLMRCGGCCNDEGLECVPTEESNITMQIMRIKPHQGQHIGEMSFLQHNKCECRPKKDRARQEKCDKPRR

PlGF = target: T3, PlGF (UniProt P49763-2 19-149, limits assumed); test: SPR, Biacore T200
T3 construct: also called PIGF
T3 sequence (looked up): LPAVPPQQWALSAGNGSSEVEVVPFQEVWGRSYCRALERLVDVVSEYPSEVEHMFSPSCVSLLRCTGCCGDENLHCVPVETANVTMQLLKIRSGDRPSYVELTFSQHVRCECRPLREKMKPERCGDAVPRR

VEGF-A165 [2] = target: T1, VEGF-A165; test: cell-based or functional assay

B1: IBI302 (Fc fusion)
chain: DTGRPFVEMYSEIPEIIHMTEGRELVIPCRVTSPNITVTLKKFPLDTLIPDGKKIIWDSRKGFIISNATYKEIGLLTCEATVNGHLYKTNYLTHRQTNTIIDVVLSPSHGIELSVGEKLVLNCTARTELNVGIDFNWEYPSSKHQHKKLVNRDLKTQSGSEMKKFLSTLTIDGVTRSDQGLYTCAASSGLMTKKNSTFVRVHEK[gap - human IgG1 Fc][gap - about 200 residues]
notes: also called bispecific fusion protein
B1 gave a Kd (VEGF-A165 [1]) of 4.68 pM, a koff (VEGF-A165 [1]) of 8.75e-05 s⁻¹ and a kon (VEGF-A165 [1]) of 1.87e+07 M⁻¹ s⁻¹. The Kd (VEGF-A121) was 6.76 pM, the koff (VEGF-A121) was 5.79e-05 s⁻¹ and the kon (VEGF-A121) was 8.57e+06 M⁻¹ s⁻¹. It also gave a Kd (PlGF) of 1.79 nM, a koff (PlGF) of 0.0018 s⁻¹ and a kon (PlGF) of 1e+06 M⁻¹ s⁻¹. The “EC50 (ng/mL), inhibition of VEGF-A-induced HUVEC proliferation (CCK-8)” value (VEGF-A165 [2]) was 54.4 ng/mL and 57.5 ng/mL.

Reference: patent publication US20230056821A1 (Innovent, published 2023)
